# Experimental data: the supplement of paper PMC9588766
# Counter-ions that a name gives are not always drawn. ± gives the standard deviation of the averaged measurements. Whole data set: some 2,000 compounds, median “cell viability relative to DMSO control (compound alone)” near 0.98, cut for the lowest 2% near 0.23. Some of the results follow.
# System: PDC-DUC18828
# Assay: cell viability relative to DMSO control (compound alone) (fraction); PDC-DUC18828 is a patient-derived cholangiocarcinoma cell line; higher = less growth inhibition
# Details: 1 µM; 72 h
# Method: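 Selleck Bioactive library screen in the patient-derived FGFR2-G3BP2 fusion-positive ICC cell line PDC-DUC18828 (500 cells/well). Each compound was tested at 1 uM alone, in triplicate, for 72 h. Viability was read by CellTiter-Glo and normalised to plate DMSO controls.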
row,Structure (SMILES),cell viability
1,CCC[C@H](NC(=O)/C(C#N)=C/c1cccc(Br)n1)c1ccccc1 [Degrasyn (WP1130)],0.892 ± 0.032
2,CCOC(=O)NCCCC(=O)NCCc1ccccc1,1.03 ± 0.067
3,CNC(=O)c1nn(C)c2c1C(C)(C)Cc1cnc(Nc3ccc(N4CCN(C)CC4)cc3)nc1-2,0.638 ± 0.048
4,CC(C)(O)CC[C@@H](O)[C@](C)(O)[C@H]1CC[C@@]2(O)C3=CC(=O)[C@@H]4C[C@@H](O)[C@@H](O)C[C@]4(C)[C@H]3CC[C@]12C [20-Hydroxyecdysone],0.93 ± 0.036
5,COc1cc2nc(N3CCN(C(=O)C4CCCO4)CC3)nc(N)c2cc1OC (stereo not given) [Terazosin HCl],1.1 ± 0.034
6,CN1CCN(c2cccc(Nc3nc4c(-c5ccc(S(C)(=O)=O)cc5)cccn4n3)c2)CC1,0.996 ± 0.05
7,CN[C@@H](C)C(=O)N[C@H](C(=O)N1CCC[C@H]1C(=O)Nc1snnc1-c1ccccc1)C1CCCCC1,0.924 ± 0.035
8,CNS(=O)(=O)Nc1nccc(Cc2c(C)c3ccc(Oc4ncccn4)cc3oc2=O)c1F,0.849 ± 0.053
9,OC[C@@H](O)[C@@H](O)[C@H](O)[C@@H](O)CO [Sorbitol],0.931 ± 0.049
10,CC(C)(C)c1cc(C(=O)C(C#N)=NNc2cccc(Cl)c2)no1,0.983 ± 0.034
11,CC(=O)OCC(=O)[C@@]1(O)CC[C@H]2[C@@H]3CCC4=CC(=O)CC[C@]4(C)[C@H]3C(=O)C[C@@]21C [Cortisone acetate],0.906 ± 0.024
12,FC(F)(F)c1ccc(/C=C/c2nc(COc3ccc(CCCCn4ccnn4)cc3)co2)cc1 [Mubritinib (TAK 165)],0.929 ± 0.045
13,CN(C)CCCOc1nn(Cc2ccccc2)c2ccccc12 [Benzydamine HCl],1.08 ± 0.029
14,O=C1c2c(O)cc(O)cc2OC(c2ccc(O)c(O)c2)C1O (stereo not given) [Taxifolin (Dihydroquercetin)],1.01 ± 0.036
15,C[C@@H]1C(=O)O[C@H]2C[C@@]34[C@H]5C[C@@H](C(C)(C)C)[C@]36[C@@H](OC(=O)[C@@H]6O)O[C@@]4(C(=O)O5)[C@]21O [Ginkgolide A],1.04 ± 0.017
16,CC1=C(C(=O)OC2CCCCC2)C(c2ccc([N+](=O)[O-])cc2)C2=C(CC(C)(C)CC2=O)N1 (stereo not given),0.943 ± 0.047
17,O=C(O)C(Cc1ccccc1[N+](=O)[O-])=NNc1nc(-c2ccc(Cl)c(Cl)c2)cs1 (mixture of isomers),0.919 ± 0.028
18,CC(c1cc2ccccc2s1)N(O)C(N)=O (stereo not given) [Zileuton],1.08 ± 0.04
19,NC(=O)c1ncn([C@@H]2O[C@H](CO)[C@@H](O)[C@H]2O)c1N [Acadesine],0.983 ± 0.044
20,CN(C)CCc1c[nH]c2ccc(C[C@H]3COC(=O)N3)cc12 [Zolmitriptan],1.06 ± 0.016
21,CN(C)CCC=C1c2ccccc2C=Cc2ccccc21 [Cyclobenzaprine HCl],1.01 ± 0.037
22,O=C1c2cccc(O)c2C(=O)c2c(O)cc(CO)cc21 [Aloe-emodin],1.06 ± 0.047
23,C[N+]1(C)CCC(=C(c2ccccc2)c2ccccc2)CC1 [Diphemanil Methylsulfate],1.024 ± 0.0092
24,COc1cc(/C=C/C(=O)O)ccc1O [Ferulic Acid],0.986 ± 0.06
25,NS(=O)(=O)c1cc2c(cc1Cl)NCNS2(=O)=O [Hydrochlorothiazide],0.929 ± 0.03
26,O=C(NC1CCOCC1)c1ccc(-c2cc(-c3c[nH]nc3-c3ccccn3)ccn2)cc1,1.03 ± 0.058
27,O=C1C(=O)N(Cc2ccc(Cl)c(Cl)c2)c2ccccc21 [Apoptosis Activator 2],0.896 ± 0.019

row,Structure (SMILES),cell viability
1,C/C(=N\NC(=S)N1CCC1)c1ccccn1,0.316 ± 0.018
2,O=c1[nH]c(=O)n([C@H]2C[C@H](O)[C@@H](CO)O2)cc1F [Floxuridine],0.985 ± 0.11
3,COc1cc(C)c(/C=C/C(C)=C/C=C/C(C)=C/C(=O)O)c(C)c1C [Acitretin],1.04 ± 0.021
4,C[C@@H]1COCCN1c1cc(C2([S@](C)(=N)=O)CC2)nc(-c2cc[nH]c3nccc2-3)n1,0.934 ± 0.037
5,CC(C)(F)C[C@H](N[C@@H](c1ccc(-c2ccc(S(C)(=O)=O)cc2)cc1)C(F)(F)F)C(=O)NC1(C#N)CC1 [Odanacatib (MK-0822)],1.02 ± 0.053
6,C#C[C@]1(OC(C)=O)CC[C@H]2[C@@H]3CCC4=C[C@@H](OC(C)=O)CC[C@@H]4[C@H]3CC[C@@]21C [Ethynodiol diacetate],1.061 ± 0.0097
7,Nc1ccc(S(=O)(=O)Nc2ncccn2)cc1 [Sulfadiazine],0.941 ± 0.037
8,CCCC(C)NC(=O)c1ccc(Cl)c(Cl)c1 (stereo not given),1.01 ± 0.03
9,CNC1CCC(N(Cc2cccc(-c3ccncc3)c2)C(=O)c2sc3ccccc3c2Cl)CC1 (stereo not given) [Smoothened Agonist (SAG) HCl],0.961 ± 0.027
10,C=CCc1cc(OC)c(O)c(C(=O)NCCO)c1 [Alibendol],1.02 ± 0.037
11,CCOc1cn(-c2ccc(F)cc2C)nc1C(=O)Nc1ccc(Oc2ccnc3cc(OC)c(OC)cc23)c(F)c1,0.852 ± 0.06
12,C#C[C@]1(O)CC[C@H]2[C@@H]3CCC4=CC(=O)CC[C@@H]4[C@H]3CC[C@@]21C [Norethindrone],1.05 ± 0.042
13,COC(=O)C1=C(C)NC(C)=C(C(=O)OC)C1c1ccccc1[N+](=O)[O-] [Nifedipine],1.01 ± 0.024
14,NC(=O)c1cccc2[nH]c(-c3ccc(C4CCCN4)cc3F)nc12 (stereo not given),1.02 ± 0.066
15,CC(C)NC[C@H](O)COc1ccc(CCOCC2CC2)cc1 [Levobetaxolol HCl],1.09 ± 0.036
16,COc1cc2c(cc1O)CC[C@@H]1[C@@H]2CC[C@]2(C)[C@@H](O)CC[C@@H]12 [2-Methoxyestradiol (2-MeOE2)],0.504 ± 0.0075
17,Nc1ccc(O)c(C(=O)O)c1 [Mesalamine],1.02 ± 0.035
18,COC(=O)N1CCN(Cc2cccc(NC(=O)Nc3ccc(C)nc3)c2F)CC1,1.01 ± 0.02
19,O=C(O)CSc1cc(NS(=O)(=O)c2ccc(Br)cc2)c2ccccc2c1O,0.916 ± 0.08
20,N=c1ccn2c(n1)O[C@H]1[C@H](O)[C@@H](CO)O[C@H]12 [Cyclocytidine HCl],0.586 ± 0.056
21,CNC(=O)c1ccc2cc([C@@]3(O)CCn4cncc43)ccc2c1 [TAK-700 (Orteronel)],1.03 ± 0.026
22,CC(=O)Oc1cc(C(F)(F)F)ccc1C(=O)O [Triflusal],0.898 ± 0.043
23,Cc1cncc(CN2CCC(=C3c4ccc(Cl)cc4CCc4cccnc43)CC2)c1 [Rupatadine Fumarate],0.873 ± 0.033
24,CS(=O)(=O)c1ccc([C@@H](O)[C@@H](CO)NC(=O)C(Cl)Cl)cc1 [Thiamphenicol],0.967 ± 0.022
25,CNC(=O)c1ccccc1Oc1nc(Nc2cc(OC)c(OC)c(OC)c2)ncc1Br,0.901 ± 0.031
26,O=c1ncn2nc(Sc3ccc(F)cc3F)ccc2c1-c1c(Cl)cccc1Cl,0.938 ± 0.011
27,C[C@]12C=CC(=O)C=C1CC[C@@H]1[C@@H]2[C@@H](O)C[C@@]2(C)[C@H]1CC[C@]2(O)C(=O)CO [Prednisolone],0.946 ± 0.014

row,Structure (SMILES),cell viability
1,"O=c1[nH]cc(F)c(=O)[nH]1 [Fluorouracil (5-Fluoracil, 5-FU)]",0.878 ± 0.018
2,C[C@@H](c1ncncc1F)[C@](O)(Cn1cncn1)c1ccc(F)cc1F [Voriconazole],1.05 ± 0.011
3,O=C(O)Cc1ccccc1Nc1c(Cl)cccc1Cl [Diclofenac Potassium],0.973 ± 0.017
4,O=C(O)Cc1ccccc1Nc1c(Cl)cccc1Cl [Diclofenac Sodium],0.976 ± 0.03
5,O=C(O)Cc1ccccc1Nc1c(Cl)cccc1Cl [Diclofenac Diethylamine],1.03 ± 0.043
6,Cc1c(NC(=O)c2ccc(C(C)(C)C)cc2)cccc1-c1cn(C)c(=O)c(Nc2ccc(C(=O)N3CCOCC3)cc2)n1,0.959 ± 0.015
7,C[C@@H]1CC(=O)NN=C1c1ccc(NN=C(C#N)C#N)cc1 [Levosimendan],0.899 ± 0.012
8,CN(C)CCCNC(=O)c1ccc(-c2cc(O)c3ncccc3c2)cc1,1.03 ± 0.033
9,NC1(c2ccc(-c3nc4ccn5c(=O)[nH]nc5c4cc3-c3ccccc3)cc2)CCC1,0.789 ± 0.022
10,CC[C@@]1(O)C(=O)OCc2c1cc1n(c2=O)Cc2cc3cc(O)ccc3nc2-1 [(S)-10-Hydroxycamptothecin],0.0902 ± 0.0027
11,CC[C@H](C)n1cc(C)c2c(C(=O)NCc3c(C)cc(C)[nH]c3=O)cc(-c3ccc(N4CCNCC4)nc3)cc21,0.969 ± 0.0099
12,Nc1cccc(S(=O)(=O)N2CCCN(S(=O)(=O)c3ccc4c(c3)OCCO4)CC2)c1,1.05 ± 0.026
13,Cc1cccc(-c2[nH]c(C(C)(C)C)nc2-c2ccc3nccnc3c2)n1,1.09 ± 0.058
14,CN1CCN(CCCNc2ncc(Cl)c(-c3cc4c(C(=O)NC5CC5)cccc4s3)n2)CC1,0.928 ± 0.053
15,NC(=O)c1noc([C@H](CCCC2CCCCC2)CC(=O)NO)n1,0.97 ± 0.056
16,CCn1c(=O)c(-c2ccc(-c3cncs3)cc2Cl)cc2cnc(Nc3ccc(N4CCN(C)CC4)cc3)nc21,0.934 ± 0.056
17,Cc1cnc(Nc2ccc(N3CCN(C)CC3)cc2)nc1Nc1cccc(S(=O)(=O)NC(C)(C)C)c1,0.782 ± 0.06
18,OC[C@@H](O)[C@@H](O)CO [Erythritol],0.995 ± 0.045
19,CC(C)CCN1c2nc(Nc3cc(F)c(O)c(F)c3)ncc2N(C)C(=O)C1C (stereo not given),0.793 ± 0.051
20,O=C1NC(=O)/C(=C/c2ccc(-c3ccc(F)cc3O)o2)S1,1.03 ± 0.019
21,O=C(O[C@@H]1Cc2c(O)cc(O)cc2O[C@@H]1c1cc(O)c(O)c(O)c1)c1cc(O)c(O)c(O)c1 [(-)-Epigallocatechin Gallate],1.05 ± 0.05
22,CC(C)C[C@H](NC(=O)CNC(=O)c1cc(Cl)ccc1Cl)B(O)O,0.0177 ± 0.0044
23,COC(=O)c1ccc2c(c1)NC(=O)/C2=C(\Nc1ccc(N(C)C(=O)CN2CCN(C)CC2)cc1)c1ccccc1 [Nintedanib (BIBF 1120)],0.892 ± 0.024
24,N#C[C@@H]1CCCN1C(=O)CNC12CC3CC(CC(O)(C3)C1)C2 [Vildagliptin (LAF-237)],0.886 ± 0.048
25,CCN(CC)CCN(Cc1ccc(-c2ccc(C(F)(F)F)cc2)cc1)C(=O)Cn1c(SCc2ccc(F)cc2)nc(=O)c2c1CCC2,0.896 ± 0.079
26,CCOc1ccn(-c2ccc(F)cc2)c(=O)c1C(=O)Nc1ccc(Oc2ccnc(N)c2Cl)c(F)c1,1.05 ± 0.03
